Sequences with one replicate were seen in a single cluster, so their values are uncertain.
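Further: ATP exposure 15 min at 22 °C before imaging.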

In the series the test system is ATP. The series is described as follows: switch fluorescence ratio, 500 uM ATP over buffer (Cy3 cluster intensity, sum of 5 cycles each) (fold (ratio)); higher = stronger signal-on switching upon ATP binding; sequences stand for … in TCGTCGGCAGCGTCAGATGTGTATAAGAGACAGTTTTTTTTTTTTTTTTTTTTTTTTT…TC. The conditions noted are these: aptamer strand: ATP DNA aptamer (quencher-CACCTGGGGGAGTATTGCGGAGGAAGG + anchor), 100 nM annealed; ATP concentration: 500 uM; one replicate. In short, it runs like this: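 After annealing to 100 nM quencher-labelled ATP aptamer, Cy3-labelled switching-strand clusters on a modified Illumina MiSeq flow-cell were imaged in selection buffer. A second image followed after 15 min with 500 uM ATP at 22 °C, and five such buffer/ATP cycles were done, each separated by NaOH stripping and re-annealing. The fluorescence ratio, averaged per switch-domain sequence, is summed target-cycle over summed buffer-cycle Cy3 intensity per cluster, with clusters outside 100-1000 RFU excluded.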
As for AAGTATCAAA, the switch fluorescence ratio is 1.03. The figure for GATGTTTTCC is 1.01; for GAGTGCCTAG it is 0.956. The figure for CGTGCATACG is 1.04; for CCGGTAGTA it is 1.11.

For GTGGATAAAT, the switch fluorescence ratio came to 0.979.

As to TTACTAACCC, the switch fluorescence ratio was 1.02. The figure for TGGCCCGCTG is 1.03; for TAAGCTCCGA it is 1.04; for TGCCGGTGTC it is 1.02. Regarding CTACGCTTGG, the switch fluorescence ratio was 1.91. The figure for CCGCAAAAAG is 2.23; for AGCTACAGTG it is 1.04. With GTGGCGGTGG the figure was 0.993; with CCCGAAGAGA, 1.06; with GGCGGGAAAA, 0.911. The figure for GTATTTAATC is 1.02; for AATATTAGTC it is 1.01. On to GAACTTGGCA, for which the switch fluorescence ratio came out at 1.05. With TGCCACTAAG the figure was 1; with GAGCGCGGAC, 1.35.

For the sequence CCATGCTAAG, the switch fluorescence ratio is 1.02. Take CCTTTTGGA: the switch fluorescence ratio came out at 1.03. With CTTGCTGCC the figure was 1.09; with TCATATATCG, 1.04; with CGTTATAGAT, 1.03. The figure for GTTCAGTTAC is 1.08. With AATACTGAAC the figure was 1.2; with CCAAACAGC, 1.07.

Regarding GTGTAGGCCT, the switch fluorescence ratio worked out at 0.991. As to AACCGGCGTT, the switch fluorescence ratio is 0.981.

With AGTAAACGAC, the switch fluorescence ratio was determined as 1.04.

Regarding TGTATCCGAT, the switch fluorescence ratio was 0.996.

For the sequence AACGCTGTCA, the switch fluorescence ratio came to 1.03. The figure for TTGCTGATCG is 0.996; for ACTAGCTGAC it is 1.59; for ACGCGTACCG it is 1.02. Turning to CGGGGTGATG, the switch fluorescence ratio is 0.951. The figure for GCGACGGCGT is 1; for TGAGAGCTCG it is 0.999; for CGTAGCAGCG it is 1.08. For TGTAGTGTA, the switch fluorescence ratio was determined as 1.08. With CGCGCCACGG the figure was 1.09; with TCGCATTCCT, 1.63. With GTGGTACATT the figure was 0.988.

With TACTCAAAAC, the switch fluorescence ratio was found to be 1.12. With GAAAAGGGTC the figure was 0.982. TTGGTGATCG: the switch fluorescence ratio was 0.935. Regarding GAAATTTATT, the switch fluorescence ratio came out at 1.06.

With ATGCCGCTGT, the switch fluorescence ratio was determined as 1.05. The figure for CAGCTTCACA is 1.04. AAGTTTGCA: the switch fluorescence ratio was 0.966. The figure for GATGTCTAAG is 0.998; for AAGGGATCTC it is 0.983; for ATCTAGCAT it is 1.02. The figure for AAGATCGGGC is 0.983; for GCGTACTAAT it is 1.02. On to TAGCCTT, for which the switch fluorescence ratio stood at 1.1. For the sequence CGGGAGTTGC, the switch fluorescence ratio was 1.01. On to CGGGTTTAGG, for which the switch fluorescence ratio amounted to 1.08. With GATTGTAAAC the figure was 0.997.

In the case of GGGATAGCCT, the switch fluorescence ratio stood at 1.

For the sequence GACTCTTATT, the switch fluorescence ratio turned out to be 0.998. With TAAAATTGTG the figure was 0.992. GGGCAACGGA: the switch fluorescence ratio turned out to be 1.15.

GGGCTATAGG: the switch fluorescence ratio stood at 1.05.

Consider ATCCCGTCTT, for which the switch fluorescence ratio is 1.08.

The values above are taken from the supplement of paper PMC10126150.
